Screen size: about 310,000 compounds; about 2,200 (0.71%) showed an effect of 50% or more. The effect is printed as a negative number. Some of the results follow.

In this assay the target is human ether-à-go-go-related gene (hERG) potassium channel (human, UniProt Q12809). Kind of assay: primary screen, population patch clamp on CHO cells stably expressing hERG.
human ether-à-go-go-related gene (hERG) potassium channel, sequence (Q12809 whole entry, looked up): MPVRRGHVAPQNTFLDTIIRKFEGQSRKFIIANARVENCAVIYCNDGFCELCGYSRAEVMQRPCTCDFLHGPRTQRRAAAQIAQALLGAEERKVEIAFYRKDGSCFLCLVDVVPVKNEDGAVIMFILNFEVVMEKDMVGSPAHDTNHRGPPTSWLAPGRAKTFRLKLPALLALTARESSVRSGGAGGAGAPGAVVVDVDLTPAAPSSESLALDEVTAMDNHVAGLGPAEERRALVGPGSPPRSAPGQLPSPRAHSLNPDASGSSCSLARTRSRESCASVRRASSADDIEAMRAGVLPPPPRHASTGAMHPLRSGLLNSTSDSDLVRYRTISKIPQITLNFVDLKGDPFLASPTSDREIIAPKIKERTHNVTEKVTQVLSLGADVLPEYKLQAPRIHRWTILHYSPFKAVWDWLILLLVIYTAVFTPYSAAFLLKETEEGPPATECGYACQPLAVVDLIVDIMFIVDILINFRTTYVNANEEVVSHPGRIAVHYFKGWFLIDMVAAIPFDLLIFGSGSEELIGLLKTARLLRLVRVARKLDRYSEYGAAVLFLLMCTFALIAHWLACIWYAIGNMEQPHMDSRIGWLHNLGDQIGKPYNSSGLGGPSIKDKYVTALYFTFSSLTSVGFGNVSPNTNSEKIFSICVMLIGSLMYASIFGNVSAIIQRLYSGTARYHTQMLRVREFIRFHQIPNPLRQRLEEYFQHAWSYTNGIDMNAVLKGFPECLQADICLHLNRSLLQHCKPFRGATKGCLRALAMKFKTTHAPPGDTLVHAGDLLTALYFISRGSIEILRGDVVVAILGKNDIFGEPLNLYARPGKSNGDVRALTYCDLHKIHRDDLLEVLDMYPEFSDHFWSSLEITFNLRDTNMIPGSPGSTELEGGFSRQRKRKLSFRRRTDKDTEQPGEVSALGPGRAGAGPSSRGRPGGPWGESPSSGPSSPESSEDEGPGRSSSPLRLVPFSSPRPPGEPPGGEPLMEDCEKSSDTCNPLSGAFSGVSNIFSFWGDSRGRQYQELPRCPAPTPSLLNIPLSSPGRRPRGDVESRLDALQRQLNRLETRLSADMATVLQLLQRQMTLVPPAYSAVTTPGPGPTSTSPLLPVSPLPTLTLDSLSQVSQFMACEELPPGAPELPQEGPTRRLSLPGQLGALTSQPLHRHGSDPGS
As for `NC(=O)c1sc2nc3c(c(-c4ccc(Cl)cc4)c2c1N)CCCC3`, the “hERG current change (%, negative = inhibition) at 1uM” value came to 9.2%.
The value for `COCc1ccc(C(=O)N2CCCC(CCC(=O)NCc3ccccc3F)C2)o1` (centres unmarked) was 4.17%; that for `Cc1cc(C)cc(OCC(=O)OC(C)C(=O)Nc2ccc(Cl)cn2)c1` (centres unmarked) was 6.93%.
`CCCS(=O)(=O)c1nc(S(=O)(=O)c2ccc(C)cc2)c(N2CCc3ccccc3C2)s1`: the “hERG current change (%, negative = inhibition) at 1uM” value came out at 8.61%.
With `CC(C)CN(C(=O)c1cccc(Cl)c1)c1c(N)n(Cc2ccccc2)c(=O)[nH]c1=O`, the “hERG current change (%, negative = inhibition) at 1uM” value amounted to 10.4%.
For the molecule `CCOC(=O)N1CCN(Cc2c(F)cccc2Cl)CC1`, the “hERG current change (%, negative = inhibition) at 1uM” value turned out to be 4.02%.
For the molecule `CC(C)C[C@H](NC(=O)c1nc[nH]c1C(=O)NCCCCCNC(=O)OC(C)(C)C)C(=O)OC(C)(C)C`, the “hERG current change (%, negative = inhibition) at 1uM” value is 12.9%.
Consider `Cc1cc(C)nc(SCCCNCc2ccccc2)n1.Cl`, for which the “hERG current change (%, negative = inhibition) at 1uM” value is on record as 11.4%.
With `CC(C)(C)NCC(O)COc1cccc2c1CC(O)C(O)C2` (centres unmarked), the “hERG current change (%, negative = inhibition) at 1uM” value is 8.39%.
`O=C(NCCCN1CCOCC1)C(Sc1ccccc1)c1ccccc1` (centres unmarked): the “hERG current change (%, negative = inhibition) at 1uM” value was found to be 0.0189%.
For `COc1ccc(/C=N/n2c(C)nnc2C)c(OC)c1OC`, the “hERG current change (%, negative = inhibition) at 1uM” value came to 14.1%.
Under `O=C(CCC(=O)c1cccs1)NC(c1ccccc1)c1ccccc1` stands 8.92%; under `CSc1nsc(N/N=C/c2ccc3c(c2)OCO3)c1C#N`, 9.07%.
Take `CCOC(=O)c1cn(-c2ccccc2)nc1-c1cccnc1`: the “hERG current change (%, negative = inhibition) at 1uM” value turned out to be 11.6%.
For `CSc1nc2c(cc1C#N)CCC2`, the “hERG current change (%, negative = inhibition) at 1uM” value came to 11.4%.
Under `O=C(/C=C/c1ccccc1)NCCN1CCOCC1` stands 21.7%; under `Clc1cccc(OCCN2CCN(CCOc3cccc(Cl)c3)CC2)c1`, -10.3%.
Regarding `COc1ccc(-n2cnnc2SCc2csc(-c3ccccc3)n2)cc1`, the “hERG current change (%, negative = inhibition) at 1uM” value was found to be 0.368%.
Under `COC(=O)[C@]1(CC(C)C)N[C@H](c2ccc(-c3ccc(F)cc3)cc2)[C@@H]2C(=O)N(C)C(=O)[C@@H]21.O=C(O)C(F)(F)F` stands -2.78%.
Turning to `CCN(CC(=O)NCc1cccs1)C(=O)c1ccc([N+](=O)[O-])o1`, the “hERG current change (%, negative = inhibition) at 1uM” value is listed as -9.13%.
`CCOc1ccccc1N(C(=O)c1snc(C(N)=O)c1N)C(C(=O)NCC1CCCO1)c1ccc2ncccc2c1` (centres unmarked): the “hERG current change (%, negative = inhibition) at 1uM” value was found to be 19.7%.
For `COc1ccc(C(=O)NCc2cccnc2)cc1OC`, the “hERG current change (%, negative = inhibition) at 1uM” value is recorded as 14.4%.
As to `Cc1ccc(CNC(=O)C(NS(=O)(=O)c2cccs2)C(C)C)cc1` (centres unmarked), the “hERG current change (%, negative = inhibition) at 1uM” value stood at 14%.
The value for `O=C(COC(=O)CCS(=O)(=O)c1ccccc1)Nc1cc(S(=O)(=O)N2CCCCC2)ccc1Cl` was 5.08%; that for `NC(=O)c1ccsc1NC(=O)c1nc(-c2ccccc2)n(-c2ccccc2)n1` was 7.07%; that for `COc1ccc([C@@H]2CC=C(C(=O)O)[C@H](c3ccc(F)cc3)N2S(=O)(=O)c2ccc(C)cc2)cc1OC` was 5.13%.
As to `CC(C)CN(CC(C)C)C(=S)NC1CCCCC1`, the “hERG current change (%, negative = inhibition) at 1uM” value was 10.9%.
`Cc1cc(C)cc(Oc2nn[nH]n2)c1`: the “hERG current change (%, negative = inhibition) at 1uM” value came to 21%.
For the molecule `COC(=O)C1CCN(S(=O)(=O)c2ccc(NC(C)=O)cc2)CC1`, the “hERG current change (%, negative = inhibition) at 1uM” value is 6.55%.
As to `CC(=O)c1c(C)[nH]c(=S)c(C#N)c1-c1ccc(F)cc1`, the “hERG current change (%, negative = inhibition) at 1uM” value came to 15.4%.
For `CCC(C)Nc1nc(N)c([N+](=O)[O-])c(NC2CCCCC2)n1` (centres unmarked), the “hERG current change (%, negative = inhibition) at 1uM” value is listed as 25.2%.
As to `CCC(C)[C@H]1CNC(=O)C(=O)N1CCCc1cc(OC)c(OC)c(OC)c1` (some centres unmarked), the “hERG current change (%, negative = inhibition) at 1uM” value was determined as 13.6%.
On to `Cc1ccc(S(=O)(=O)c2c(N)n(C)c3nc4ccccc4nc23)cc1`, for which the “hERG current change (%, negative = inhibition) at 1uM” value came out at 7.64%.
As for `O=C(CCCN1C(=O)/C(=C\c2ccco2)SC1=S)Nc1ccc2ccccc2c1`, the “hERG current change (%, negative = inhibition) at 1uM” value is given as 3.5%.
Take `Fc1cccc(Cl)c1/C=C/c1cnc2ccccc2n1`: the “hERG current change (%, negative = inhibition) at 1uM” value amounted to 13.6%.
In the case of `COc1ccccc1NC(=O)NNC(=O)CCN1CCOCC1`, the “hERG current change (%, negative = inhibition) at 1uM” value amounted to 8.19%.
For the molecule `Cc1noc(C)c1COc1cccc(C(=O)OCC(=O)N2CC(=O)Nc3ccccc32)c1`, the “hERG current change (%, negative = inhibition) at 1uM” value is reported as 10.6%.
On to `CC1CC(C)CN(CC(=O)Nc2cc(S(=O)(=O)N3CCOCC3)ccc2N2CCCC2)C1` (centres unmarked), for which the “hERG current change (%, negative = inhibition) at 1uM” value was found to be 9.71%.
With `CN(C)c1ccc(/C=N/NC(=O)c2ccc(NC(=O)c3ccccc3)cc2)cc1`, the “hERG current change (%, negative = inhibition) at 1uM” value turned out to be 6.02%.
For the molecule `O=C(c1ccc(Cl)c(S(=O)(=O)N2CCCC2)c1)N1CCOCC1`, the “hERG current change (%, negative = inhibition) at 1uM” value is on record as -21.1%.
The value for `CC1(C)Cc2ccccc2-c2nnc(-c3ccco3)n21` was 8.41%.
As to `COC1(OC)C(=N/O)/C(=N\O)CCC1O` (centres unmarked), the “hERG current change (%, negative = inhibition) at 1uM” value was determined as 2.15%.
As for `CCCOc1ccc2c(=O)c(-c3cc(C(=O)OC)oc3C)c(C)oc2c1`, the “hERG current change (%, negative = inhibition) at 1uM” value came to 5.56%.
For the molecule `O=C(CN(CC1CCCO1)C(=O)CCC(=O)Nc1ccccn1)NCc1ccccc1` (centres unmarked), the “hERG current change (%, negative = inhibition) at 1uM” value is 6.91%.
Turning to `Cl.Nc1ccc(N2CCCCCC2)cc1`, the “hERG current change (%, negative = inhibition) at 1uM” value is on record as -2.52%.
Under `COc1cc(NC(=O)CN2C(=O)NC(C)(c3ccc4ccccc4c3)C2=O)c(C)cc1[N+](=O)[O-]` (centres unmarked) stands 18.1%.
As to `O=C(CC1S/C(=N/N=C2CCCCCC2)NC1=O)Nc1ccccc1C(F)(F)F` (centres unmarked), the “hERG current change (%, negative = inhibition) at 1uM” value was 10.8%.
On to `O=C(CCN1C(=O)/C(=C/c2cccs2)SC1=S)Nc1ccc(O)cc1`, for which the “hERG current change (%, negative = inhibition) at 1uM” value is on record as 6.71%.
Regarding `COc1ccccc1CCC(=O)Nc1cccc(S(=O)(=O)N2CCCCCC2)c1`, the “hERG current change (%, negative = inhibition) at 1uM” value was found to be 14.1%.
On to `CCCCCc1nc2c(=O)n(C)c3ccccc3c2o1`, for which the “hERG current change (%, negative = inhibition) at 1uM” value is on record as -2.04%.
For the molecule `CCC(CC)C(=O)Nc1ccc([N+](=O)[O-])cn1`, the “hERG current change (%, negative = inhibition) at 1uM” value turned out to be 12.5%.
`COC(=O)c1ccccc1NC(=S)N1CCOCC1`: the “hERG current change (%, negative = inhibition) at 1uM” value was determined as 15.4%.
For `NC(=O)CSc1nnc(-c2ccc3c(c2)OCO3)o1`, the “hERG current change (%, negative = inhibition) at 1uM” value was determined as 14%.
For `CCOC(=O)C1=C(c2ccccc2)NC(SCC(=O)Nc2ccc(C)cc2)=C(C#N)C1c1ccco1` (centres unmarked), the “hERG current change (%, negative = inhibition) at 1uM” value was -8.66%.
Turning to `CCOC(=O)N1CCC(N2Cc3cccc(C(=O)Nc4cccc(F)c4)c3C2=O)CC1`, the “hERG current change (%, negative = inhibition) at 1uM” value is listed as -36.5%.
On to `CCCN(CC(=O)Nc1ccc(C)cc1Br)CC(=O)Nc1ccc(F)c(F)c1F`, for which the “hERG current change (%, negative = inhibition) at 1uM” value was 4.73%.

The values above are taken from publication PMC4336329 (PLoS ONE, 2015).
